These results are taken from publication PMC10668032.

This is one part of the list. At the low end of the ranking the order means little.

This test has as its target SIX1 homeodomain (reference allele) (UniProt Q15475). Kind of test: universal protein binding microarray. To be noted: Universal all-10-mer PBM (8x60K, AMADID 030236), 300 nM GST-tagged protein, Alexa Fluor 488 anti-GST; buffer, salt, pH and temperature not stated; high values mean tight binding; most listed sequences are background and not binding sites; double strand, one strand shown.
Turning to AATGCCGG, the binding signal was -0.107 E-score.

As to GACAGCAA, the binding signal was -0.297 E-score.

ATACTACG: the binding signal amounted to 0.259 E-score.

As for CGCGTCCA, the binding signal worked out at 0.0316 E-score.

As to AAGAACCT, the binding signal was -0.154 E-score.

AGATATTC: the binding signal amounted to 0.219 E-score.

As for GAATAGAA, the binding signal was -0.114 E-score.

As to AGAAGGTA, the binding signal came to 0.139 E-score.

As to ACCCATTA, the binding signal was -0.0649 E-score.

AAGACCCT: the binding signal was -0.105 E-score.

As to AACAGTCC, the binding signal was -0.226 E-score.

With CTCTAGGA, the binding signal is -0.0825 E-score.

Regarding ATTGCAAC, the binding signal is -0.11 E-score.

Take AGACGAAA: the binding signal is -0.0371 E-score.

For CGTTTCGA, the binding signal is -0.0806 E-score.

Turning to AGGCCCGA, the binding signal was -0.0588 E-score.

With AAAGCCAC, the binding signal is -0.286 E-score.

As to ACGGGCGA, the binding signal came out at 0.0482 E-score.

Take ACCAGTTG: the binding signal was 0.0409 E-score.

Take CCGACTAC: the binding signal was -0.131 E-score.

Take GCGCAACC: the binding signal is -0.128 E-score.

GGCAGACC: the binding signal is -0.117 E-score.

For AGTACTCG, the binding signal came to 0.0868 E-score.

In the case of AACTTTCT, the binding signal is -0.291 E-score.

CACCCGGG: the binding signal was determined as 0.182 E-score.

On to CCCACGTA, for which the binding signal is 0.0411 E-score.

In the case of AGACTTTC, the binding signal was -0.275 E-score.

As to CGAATTGA, the binding signal was -0.101 E-score.

For TCGATGCA, the binding signal came to 0.0817 E-score.

For the sequence CTCACCAA, the binding signal was -0.0385 E-score.

Take ATGCCGGG: the binding signal is -0.0212 E-score.

As for CGTCTCGC, the binding signal was 0.167 E-score.

Take AGCAATCG: the binding signal was -0.2 E-score.

For GTTTCCTA, the binding signal was -0.205 E-score.

Consider CCTGGACG, for which the binding signal was -0.0135 E-score.

Turning to AATGGTCA, the binding signal is -0.0735 E-score.

For CCCGTTGA, the binding signal was -0.135 E-score.

Consider GAACCGTA, for which the binding signal was 0.0391 E-score.

As for ATATATAG, the binding signal stood at 0.238 E-score.

In the case of CCTACTGA, the binding signal was -0.0525 E-score.

AAGGTTAC: the binding signal was -0.141 E-score.

With CACAAAGA, the binding signal is -0.0587 E-score.

Consider CATTAGAG, for which the binding signal is -0.12 E-score.

As to CTGGTTGC, the binding signal is -0.0736 E-score.

With AATGTGGC, the binding signal was -0.284 E-score.

For ACGCCTAT, the binding signal amounted to 0.0492 E-score.

As for CGGTCCCA, the binding signal was -0.161 E-score.

On to CACAGTCC, for which the binding signal is -0.209 E-score.

On to AGGCGGGC, for which the binding signal was -0.11 E-score.

For AACTAGTA, the binding signal was 0.0559 E-score.

Consider CAAACCCA, for which the binding signal was 0.00758 E-score.

Consider ACCCTACT, for which the binding signal stood at 0.0505 E-score.

For ACACTTCC, the binding signal is -0.06 E-score.

As for GCGGTACA, the binding signal stood at 0.139 E-score.

For CATTGGAA, the binding signal is -0.143 E-score.

As to AATCGAAC, the binding signal came to 0.0496 E-score.

As for CGGGTTTA, the binding signal came to 0.116 E-score.

As to AAAGCGAG, the binding signal is -0.162 E-score.

With ATCGCCTG, the binding signal turned out to be 0.206 E-score.

As for GCGTTCTA, the binding signal was -0.184 E-score.

On to TCCCAACA, for which the binding signal is 0.0089 E-score.

Take CACATTCC: the binding signal was -0.151 E-score.

As to TGGACCAA, the binding signal is -0.269 E-score.

As to AAAACGTG, the binding signal is -0.278 E-score.

Regarding GCAGAAAA, the binding signal is -0.106 E-score.

Turning to AGACAAGA, the binding signal was -0.0218 E-score.

In the case of AGCCGGCG, the binding signal was -0.0212 E-score.

Consider AATATAAA, for which the binding signal was -0.00775 E-score.

For the sequence CAAACACA, the binding signal was -0.024 E-score.

As to TAAGCTCA, the binding signal was -0.0997 E-score.

As for CTAAACTC, the binding signal was -0.11 E-score.

For the sequence CACCCAGA, the binding signal was 0.0878 E-score.

On to AAAGAGCT, for which the binding signal is -0.252 E-score.

Take AGTGTCGC: the binding signal is -0.0397 E-score.

With GATAAGAA, the binding signal is -0.00641 E-score.

For GCATTGGA, the binding signal is -0.0558 E-score.

On to ACATCCAC, for which the binding signal is -0.0316 E-score.

As to AATGGACA, the binding signal is -0.0555 E-score.

On to CGTCTAAC, for which the binding signal is -0.0722 E-score.

For ACGCTTCA, the binding signal is -0.184 E-score.

As to CGAGATAC, the binding signal worked out at 0.381 E-score.

Consider CGTCACCA, for which the binding signal was -0.163 E-score.

Consider GCGCCGAC, for which the binding signal is -0.203 E-score.

For the sequence CGGCTCGC, the binding signal is -0.0991 E-score.

As to AGAATTGG, the binding signal is -0.0851 E-score.

With CACCGGCA, the binding signal worked out at 0.188 E-score.

ACGGTTTC: the binding signal came out at 0.0502 E-score.

Turning to ACTTTCTC, the binding signal is -0.336 E-score.

As to TTTCGAAA, the binding signal was -0.179 E-score.

Regarding CAGAGTAC, the binding signal is -0.162 E-score.

With TAGACCAA, the binding signal was -0.159 E-score.

Regarding ACTGATTG, the binding signal was -0.145 E-score.

Take CAGCTTAC: the binding signal was -0.0216 E-score.

On to CTGAATGC, for which the binding signal was -0.355 E-score.

Turning to GCTACGAC, the binding signal was -0.0787 E-score.

Consider CGGCTACC, for which the binding signal is 0.134 E-score.

Take CCATGGGG: the binding signal amounted to 0.0804 E-score.

In the case of CCAAGGTC, the binding signal was -0.0369 E-score.

For TAGAAAGA, the binding signal worked out at 0.00966 E-score.

For the sequence CACCGCGA, the binding signal came out at 0.131 E-score.

GCTCTTGA: the binding signal was -0.188 E-score.

For the sequence CCACGGCC, the binding signal is -0.15 E-score.

As for CTCTAGAG, the binding signal amounted to 0.048 E-score.

Regarding ACAATGAG, the binding signal stood at 0.0307 E-score.

With GGATGACA, the binding signal came to 0.0846 E-score.

Turning to ACTCCTCA, the binding signal is -0.00274 E-score.

Consider CCTCGGTC, for which the binding signal stood at 0.0728 E-score.

Regarding CTCTTCCC, the binding signal is -0.0452 E-score.

Regarding CACTTCTG, the binding signal is -0.0866 E-score.

GATGTGAA: the binding signal is 0.0599 E-score.

For the sequence CCATTGTC, the binding signal is -0.198 E-score.

With GACCGCGA, the binding signal was -0.0926 E-score.

As for TCAGGAGA, the binding signal amounted to 0.0363 E-score.

In the case of ATACCCCA, the binding signal stood at 0.43 E-score.

Take CCTATTAC: the binding signal amounted to 0.0325 E-score.

In the case of AGCTAAAC, the binding signal was -0.217 E-score.

Consider CTGATTGC, for which the binding signal is -0.0634 E-score.

As to ATGTTGCA, the binding signal was -0.132 E-score.

With ACTGCATC, the binding signal worked out at 0.115 E-score.

In the case of GGAGTTTA, the binding signal was -0.135 E-score.

On to CTCCATGA, for which the binding signal was -0.0718 E-score.

For the sequence ACATCGAA, the binding signal turned out to be 0.0266 E-score.

For CGGCGCTC, the binding signal is -0.1 E-score.

Turning to GATTAAGA, the binding signal is 0.0867 E-score.

GGGATTGA: the binding signal came out at 0.128 E-score.

For the sequence GAATAATA, the binding signal was 0.226 E-score.

For the sequence CTGGGGGA, the binding signal came to 0.0978 E-score.

Take ACAGGATG: the binding signal stood at 0.179 E-score.

Regarding ATATACGA, the binding signal stood at 0.157 E-score.

Consider CTATCCCA, for which the binding signal stood at 0.257 E-score.

Turning to CACGTAAA, the binding signal was -0.163 E-score.

In the case of AAGTAGCG, the binding signal is -0.101 E-score.

With GACTGATC, the binding signal is 0.272 E-score.

AGGAGGCG: the binding signal is -0.103 E-score.

Turning to ATCTTGTG, the binding signal came out at 0.166 E-score.

ATGTAAAA: the binding signal was -0.313 E-score.

In the case of CGTGATAG, the binding signal stood at 0.244 E-score.

As for ACCAGCTA, the binding signal was determined as 0.00338 E-score.

Regarding TCTGTAAA, the binding signal is -0.184 E-score.

As to CACACAAG, the binding signal is -0.154 E-score.

With GAATCACC, the binding signal was -0.118 E-score.

ACGTCCTA: the binding signal was -0.103 E-score.

In the case of GATTGAGC, the binding signal amounted to 0.0181 E-score.

With CTCGTATA, the binding signal is 0.161 E-score.

In the case of GTGCGACA, the binding signal was -0.0981 E-score.

Take CATTACTA: the binding signal came to 0.000975 E-score.

Take CTGACATA: the binding signal is -0.151 E-score.

Regarding AGGCGATG, the binding signal was -0.00108 E-score.

In the case of TACCTAAA, the binding signal is -0.00297 E-score.

Turning to ATGGCTGC, the binding signal was -0.229 E-score.

On to CATGGACA, for which the binding signal was -0.158 E-score.

As to GACACGCA, the binding signal worked out at 0.0451 E-score.

As to GAGCCCGC, the binding signal was -0.0546 E-score.

On to GCATACCA, for which the binding signal was 0.144 E-score.

Take CCACAAAC: the binding signal was -0.0226 E-score.

Turning to ATCCAAAG, the binding signal was determined as 0.0528 E-score.

In the case of ACCAAGGG, the binding signal turned out to be 0.0408 E-score.

In the case of ATGGACAC, the binding signal came out at 0.0165 E-score.

Regarding GCACCGAA, the binding signal is -0.227 E-score.

CTTCGCGA: the binding signal was -0.0983 E-score.

For GATATTCC, the binding signal stood at 0.376 E-score.

Turning to GTTTGGCA, the binding signal was -0.261 E-score.

As to CCTGAAGC, the binding signal is -0.23 E-score.

Consider GTCGTCGA, for which the binding signal was -0.222 E-score.

For the sequence TACTACTA, the binding signal is 0.195 E-score.

Regarding CCGCGCGA, the binding signal worked out at 0.0377 E-score.

As to GCTTGCCA, the binding signal was -0.201 E-score.

In the case of GCAGGTCA, the binding signal was -0.241 E-score.

As for GGCGAGTA, the binding signal came to 0.011 E-score.

Turning to AGGATAAT, the binding signal came out at 0.295 E-score.

As to CGGCTAAC, the binding signal is -0.0604 E-score.

As to AAAGTCGT, the binding signal is -0.277 E-score.
